# Experimental data from PubChem BioAssay AID1347165 (National Center for Advancing Translational Sciences (NCATS), 2019).
# Where “and” joins values, the source holds several entries; their conditions need not be identical. Equal entries are not always repeated. Hit rate of the full screen: of about 220,000 compounds, about 5,700 (2.6%) were called active. The inconclusive results got no clear call from the source; some entries with a clear call stand among them for comparison. The call rests on the fitted dose curve; in most records, active means well fitted inhibition curve with a large enough effect; inconclusive means small, poorly fitted or top-dose-only effect; inactive means no such curve, though single readings can be large or run the other way. A potency beside an inconclusive call is a rough fit, not a confirmed value.
# Molecular target: Lysine-specific demethylase 5B (Homo sapiens) (UniProt Q9UGL1)
# Test: Primary screen for KDM5B Histone Demethylases FDH-coupled qHTS; further: nearly all actives have a fitted effect of over 70% in size; on activity change, negative = inhibition: 0% is about no effect
# Settings: FDH-coupled NADH fluorescence (FDH is formaldehyde dehydrogenase); activity change, negative = inhibition: at 57.7 µM (top of the series) unless noted
# Summary of the method: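 KDM5BΔAP (200 nM final) in 50 mM HEPES pH 7.5, 0.01% Tween-20 was preincubated 10 min at RT with compound over a concentration range. Substrate mix (H3K4me3 12.5 µM, α-KG 25 µM, Fe²⁺, ascorbate, NAD⁺, FDH) was added, and NADH fluorescence change over 30 min gave dose-response curves.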
# Potency means the concentration at half of the fitted maximal effect; tags describe the fitted curve by direction and shape.
# UniProt Q9UGL1, sequence (Q9UGL1 whole entry, looked up): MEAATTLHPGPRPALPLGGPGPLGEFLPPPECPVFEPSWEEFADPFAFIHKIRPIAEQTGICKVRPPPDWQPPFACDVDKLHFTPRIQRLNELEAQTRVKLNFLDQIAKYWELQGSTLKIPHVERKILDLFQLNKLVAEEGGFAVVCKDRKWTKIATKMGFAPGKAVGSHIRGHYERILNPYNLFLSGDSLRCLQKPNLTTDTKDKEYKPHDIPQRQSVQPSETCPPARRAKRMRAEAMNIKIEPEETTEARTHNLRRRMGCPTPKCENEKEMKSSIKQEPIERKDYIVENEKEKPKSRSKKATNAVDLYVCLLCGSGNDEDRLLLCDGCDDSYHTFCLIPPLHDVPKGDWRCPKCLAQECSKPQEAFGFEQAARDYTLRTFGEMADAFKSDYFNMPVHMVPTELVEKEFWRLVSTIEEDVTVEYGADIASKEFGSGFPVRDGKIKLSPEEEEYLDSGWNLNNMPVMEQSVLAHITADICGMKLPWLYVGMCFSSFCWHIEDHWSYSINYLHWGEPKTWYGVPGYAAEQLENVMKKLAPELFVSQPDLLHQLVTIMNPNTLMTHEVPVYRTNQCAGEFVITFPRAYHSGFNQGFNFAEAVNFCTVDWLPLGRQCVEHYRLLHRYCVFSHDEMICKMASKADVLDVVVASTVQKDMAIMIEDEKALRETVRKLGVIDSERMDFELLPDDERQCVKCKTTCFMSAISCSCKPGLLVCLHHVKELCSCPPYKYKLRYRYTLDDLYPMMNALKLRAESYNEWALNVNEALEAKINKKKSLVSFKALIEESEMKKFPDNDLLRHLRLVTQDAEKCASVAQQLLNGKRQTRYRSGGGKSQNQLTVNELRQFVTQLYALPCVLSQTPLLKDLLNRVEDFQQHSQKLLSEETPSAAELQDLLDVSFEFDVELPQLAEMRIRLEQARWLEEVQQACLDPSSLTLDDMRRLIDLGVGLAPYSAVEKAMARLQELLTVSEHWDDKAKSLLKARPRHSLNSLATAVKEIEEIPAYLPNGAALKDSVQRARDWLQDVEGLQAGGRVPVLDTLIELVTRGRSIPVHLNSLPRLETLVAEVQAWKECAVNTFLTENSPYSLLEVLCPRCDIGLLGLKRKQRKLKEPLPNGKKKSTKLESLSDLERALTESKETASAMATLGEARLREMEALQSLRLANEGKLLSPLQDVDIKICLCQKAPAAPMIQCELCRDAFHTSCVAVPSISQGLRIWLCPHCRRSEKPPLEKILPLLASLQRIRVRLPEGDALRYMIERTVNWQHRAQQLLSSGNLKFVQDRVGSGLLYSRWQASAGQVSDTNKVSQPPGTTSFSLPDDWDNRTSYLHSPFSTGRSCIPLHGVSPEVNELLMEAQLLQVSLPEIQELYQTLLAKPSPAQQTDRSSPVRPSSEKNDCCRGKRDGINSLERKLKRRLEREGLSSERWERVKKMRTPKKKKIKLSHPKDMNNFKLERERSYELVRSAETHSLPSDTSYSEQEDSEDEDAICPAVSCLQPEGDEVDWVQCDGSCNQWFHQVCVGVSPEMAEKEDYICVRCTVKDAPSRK
SMILES,Potency,"activity change, negative = inhibition"
CCOC(=O)c1cc2cc(C(=O)NC(C)CC)ccc2[nH]1 (stereo unspecified),"inconclusive: 17.8 µM [inhibitor, partial curve, poor fit]",–
COc1ccccc1-c1cc(NCc2cnccn2)c2onc(C)c2n1,"inconclusive: 35.5 µM [inhibitor, single point]",–
CCOc1ccc(C(C)=O)cc1COc1ccc2c(CC)cc(=O)oc2c1,"inconclusive: 28.2 µM [inhibitor, partial curve, poor fit]",–
O=C1NCCCCCCN(Cc2ccncc2)[C@@H]2CN(C3CCOCC3)CC[C@@H]12,"inconclusive: 14.1 µM [inhibitor, partial curve, poor fit]",–
Cc1sc(NC(=O)c2ccc(C(C)C)cc2)c(C#N)c1C,"inconclusive: 14.1 µM [inhibitor, partial curve, poor fit]",–
CCCNC(=O)CNC(=O)CCc1ncc(-c2ccc(C)cc2)o1,–,inactive: -10.6%
CCCCOc1ccc(C(=O)N2CCC[C@H]2c2nc(-c3ccc(OC)cc3)no2)cc1,"inconclusive: 31.6 µM [inhibitor, single point]",–
O=C(NCc1nnc2cc(-c3nc(C4CC4)no3)ccn12)C1CCCCC1,active: 28.2 µM,–
CN(C)C[C@@H]1CN(c2ncccn2)C[C@H]1NC(=O)c1cnco1,active: 31.6 µM,–
CCc1ccc(N2CC(c3noc(-c4cccc(OC)c4OC)n3)CC2=O)cc1 (stereo unspecified),"inconclusive: 10 µM [inhibitor, partial curve, poor fit]",–
O=C(NCc1ccc(S(=O)(=O)N2CCOCC2)cc1)c1ccc(Cl)cc1O,–,inactive: -23.1%
Cn1c(=O)c2c(nc(Cl)n2CC(=O)N(C2CC2)C2CCS(=O)(=O)C2)n(C)c1=O (stereo unspecified),–,inactive: -7.93%
N#Cc1ccsc1NC(=O)CSc1nnc(-c2ccccc2Cl)n1C1CCCC1,–,inactive: -16.8%
Cc1ccc(S(=O)(=O)N2CCN(C(=O)CN(Cc3ccco3)Cc3ccco3)CC2)cc1C,–,inactive: -12.4%
COc1cc(C(=O)Nc2ccc3oc(C)nc3c2)cc(OC)c1C,–,inactive: 7.6%
Cn1ncc2c(C(=O)NCc3ccc(F)cc3)cc(-c3ccc([S+](C)(=O)[O-])cc3)nc21,active: 50.1 µM,–
O=C(NCCc1ccncc1)C1CC(=O)N(c2n[nH]c3cccc(F)c23)C1 (stereo unspecified),–,inactive: -9.13%
Nc1nccnc1C(=O)NCc1cc(Br)ccc1F,"inconclusive: 28.2 µM [inhibitor, partial curve, poor fit]",–
Cc1nn(C)c2nc(N3CCC(C#N)(c4ccccc4)CC3)sc12,"inconclusive: 8.91 µM [inhibitor, partial curve]",–
O=[N+]([O-])c1c(NC2CCN(C3CC3)CC2)ccc2ncccc12,–,inactive: -0.211%
S=C(Cc1nc(-c2ccccc2)cs1)N1CCOCC1,–,inactive: -13.9%
Cc1ccc(NC(=O)Cn2c(=O)c(CNc3ccccc3)cc3cc4c(cc32)OCCO4)cc1,"inconclusive: 12.6 µM [inhibitor, partial curve, poor fit]",–

SMILES,Potency,"activity change, negative = inhibition"
Cc1ccc(-c2cc3c(=O)n(CCNC(=O)Cc4ccc(Cl)cc4)ccn3n2)cc1C,"inconclusive: 39.8 µM [inhibitor, single point]",–
CCCn1c(C)cc(C(=O)CN2C(=O)c3ccccc3C2=O)c1C,–,inactive: 25%
CC(C)c1noc(-c2cn(C3CCCN(C(=O)c4ccc(Cl)s4)C3)nn2)n1 (stereo unspecified),–,inactive: 4.73%
Cc1nc(NC(=O)C2CC(=O)N(c3n[nH]c4cc(Br)ccc34)C2)sc1C (stereo unspecified),"inconclusive: 22.4 µM [inhibitor, partial curve]",–
CSCCC(NS(=O)(=O)c1ccc2c(c1)oc(=O)n2C)C(=O)Nc1ccc(F)cc1 (stereo unspecified),–,inactive: 22.1%
Cc1cccc(C)c1NC(=O)CSCc1cnn(-c2ccccc2)c1-n1cccc1,"inconclusive: 7.94 µM [inhibitor, partial curve, poor fit]",–
COc1ccccc1Cn1c(CNS(=O)(=O)c2cccc([N+](=O)[O-])c2)nc2cccnc21,"inconclusive: 35.5 µM [inhibitor, single point]",–
Cc1ccc(-c2nn(CC(=O)Nc3cccc(C(F)(F)F)c3)c(=O)c3ccccc23)cc1,"inconclusive: 11.2 µM [inhibitor, partial curve, poor fit] and inconclusive: 22.4 µM [inhibitor, single point]",–
CCOc1ccc(N(C(=O)c2cc(OC)c(OC)c(OC)c2)C2C=CS(=O)(=O)C2)cc1 (stereo unspecified),–,inactive: 0.0693%
Cn1cccc1C(=O)N1CCC(N2CC3CC(C2)[C@H]2CCCC(=O)N2C3)CC1 (stereo partly specified),"inconclusive: 14.1 µM [inhibitor, single point]",–
O=C(CSc1nc(C2CC2)n(-c2ccccc2)n1)N1CCN(c2ccc(O)cc2)CC1,"inconclusive: 25.1 µM [inhibitor, partial curve, poor fit]",–
Cc1oc(C)c2c(=O)cc(-c3ccc4c(c3)OCO4)cc(OC(=O)c3ccc(Cl)cc3)c12,"inconclusive: 35.5 µM [inhibitor, single point]",–
CC(=O)NCCC(=O)N1CCCC(c2[nH]ncc2-c2ccc(C)cc2)C1 (stereo unspecified),–,inactive: -4.24%
CC(C)S(=O)(=O)c1ncc(CN(C)Cc2ccsc2)n1CCc1ccccc1,–,inactive: -11.9%
COc1cc(CNc2ccc3[nH]c(=O)[nH]c3c2)cc(Cl)c1OCc1ccccc1F,"inconclusive: 20 µM [inhibitor, partial curve, poor fit]",–
COc1ccc(-c2cc(C(=O)NC3CCNCC3)c3c(C4CCCN4)noc3n2)cc1 (stereo unspecified),"inconclusive: 56.2 µM [inhibitor, partial curve, poor fit]",–
Cc1ccc(/C=N/Nc2cc(C)c3ccccc3n2)s1,"inconclusive: 22.4 µM [inhibitor, partial curve, poor fit]",–
Cc1ccc(-c2nc3ccccc3[nH]2)cc1NC(=O)COc1cccc(C)c1C,"inconclusive: 35.5 µM [inhibitor, partial curve, poor fit]",–
O=C(NCc1ccoc1)c1ccc2nc(-c3ccc(F)cc3)cn2c1,active: 25.1 µM,–
O=C(NCCc1cccs1)c1cc2n(n1)CC(c1ccc(Cl)cc1)OC2 (stereo unspecified),"inconclusive: 20 µM [inhibitor, partial curve]",–
O=C(COC(=O)c1cc(=O)[nH]c2ccccc12)Nc1ccccc1,–,inactive: -28.2%
COc1cccc(-c2noc(-c3cc4ccccc4oc3=O)n2)c1OC,"inconclusive: 14.1 µM [inhibitor, partial curve, poor fit]",–

SMILES,Potency,"activity change, negative = inhibition"
O=C(NCc1ccc2c(c1)CCN2C(=O)c1ccc(F)cc1)c1c(F)cccc1F,–,inactive: -13.2%
O=C(COC(=O)c1n[nH]c2ccccc12)NCCc1ccc(Cl)cc1,"inconclusive: 39.8 µM [inhibitor, single point]",–
Cc1ccc(-c2nc(CNC(=O)c3ccccc3)c(C)o2)cc1,–,inactive: -13.3%
COCc1ccc2c(c1)c(OC(C)(C)C(=O)NCCc1ccccn1)nn2CCC(C)C,"inconclusive: 35.5 µM [inhibitor, partial curve]",–
COc1cccc2cc(-c3cc(=O)oc4ccc(C(C)C)cc34)oc12,"inconclusive: 31.6 µM [inhibitor, partial curve, poor fit]",–
COc1ccc(C(=O)NC2CCc3nn(CC4CC4)c(=O)n3CC2)c(C)c1 (stereo unspecified),–,inactive: -24.1%
CCOc1ccc(/C=C/c2nc(C#N)c(NCc3ccc(OC)cc3)o2)cc1,"inconclusive: 3.98 µM [inhibitor, partial curve, poor fit] and inconclusive: 1.78 µM [inhibitor, partial curve, poor fit]",–
CC(C)Cc1nn2c(=O)cc(COC(=O)c3cccc(NC(=O)c4ccccc4)c3)nc2s1,"inconclusive: 35.5 µM [inhibitor, single point]",–
O=C1COc2ccc(-c3csc(Nc4cccc(Br)c4)n3)cc2N1,–,inactive: -15.2%
CCCN(CCC)CCNC(=O)c1cc2c(=O)oc3ccc(C)cc3c2s1,"inconclusive: 17.8 µM [inhibitor, partial curve, poor fit]",–
Cc1cccc(N2CCN(C(=O)c3cc4ccc5cccnc5c4[nH]3)CC2)c1C,"inconclusive: 28.2 µM [inhibitor, partial curve, poor fit]",–
COc1ccc(-c2nn(Cc3nc(-c4ccc(Br)cc4)no3)c(=O)c3ccccc23)cc1,–,inactive: -20.2%
COc1cccc(CCC(=O)NC2CCN(c3cc(-c4ccccc4)[nH]n3)CC2)c1,–,inactive: -15.9%
CCOC(=O)c1ccc(NC(=O)c2cc(=O)c3ccc(C)c(C)c3o2)cc1,inactive,–
Cc1ccccc1OCc1nc(C2CN(C(=O)c3cc4ccccc4[nH]3)C2)no1,"inconclusive: 25.1 µM [inhibitor, partial curve, poor fit]",–
COc1ccc(-c2cc(-c3c(C)noc3C)c3cncn3c2)cn1,"inconclusive: 39.8 µM [inhibitor, partial curve, poor fit]",–
O=C(NCCc1ccccc1)C1CCCN(C2CCN(Cc3nccs3)CC2)C1 (stereo unspecified),"inconclusive: 31.6 µM [inhibitor, partial curve, poor fit]",–
CCOCCCNC(=O)Cn1ncc2c([nH]c3ccc(C)cc32)c1=O,"inconclusive: 15.8 µM [inhibitor, partial curve, poor fit]",–
COCCN(Cc1ccc(C)c(Br)c1)S(=O)(=O)c1ccc2[nH]c(=O)ccc2c1,–,inconclusive: -39.5% [inhibitor]
CC(C)COc1cccc(C(=O)Nc2ccc3oc(-c4ccncc4)nc3c2)c1,"inconclusive: 31.6 µM [inhibitor, partial curve, poor fit]",–
Cn1cnnc1SCCCN1C(=O)c2cccc3cccc(c23)C1=O,"inconclusive: 25.1 µM [inhibitor, partial curve, poor fit]",–
Cc1cc(C)c(CNC(=O)c2cc(-c3cccc4[nH]ccc34)cc3ncn(C)c23)c(=O)[nH]1,"inconclusive: 35.5 µM [inhibitor, single point]",–
